#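 Cells were grown in 96-well plates and exposed to each compound for 48 hours at five concentrations; endpoints were interpolated linearly between bracketing concentrations, or set to the highest concentration if not reached. GI50: concentration for 50% inhibition of growth.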 The source holds more than one record for some entries. The list is limited to them. There may be further records. For some assays here: Records of one sample usually come from different ranges of test concentrations, not given here; a value can be the end of its range.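 TGI marks complete inhibition of growth.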 For some assays here: Values that stand side by side are repeats across runs, samples, wells, individuals or studies. A tag in brackets gives the origin of a value. The letters are not those of the source and start again with each entry. Square brackets hold non-standard residues; d marks the D form. Peptide text beside a SMILES is read from it. * marks the point of attachment. ξ: configuration not given here. ξNMe2Val = CC(C)C(C(=O)*)N(C)C; NMeV = CN[CH](C(=O)O)C(C)C; NHBn = c1ccc(CN*)cc1
# Tests used:
# Assay in all cases: NCI anticancer screen, dose series, 48 h
# OVCAR-5 ovarian = test system: OVCAR-5 ovarian
# OVCAR-3 ovarian = test system: OVCAR-3 ovarian
# HOP-18 NSCLC = test system: HOP-18 NSCLC
# KM20L2 colon = test system: KM20L2 colon
# TK-10 renal = test system: TK-10 renal
# EKVX NSCLC = test system: EKVX NSCLC
# K-562 leukemia = test system: K-562 leukemia
# UACC-62 melanoma = test system: UACC-62 melanoma
# CCRF-CEM leukemia = test system: CCRF-CEM leukemia
# MOLT-4 leukemia = test system: MOLT-4 leukemia
# SR leukemia = test system: SR leukemia
# UO-31 renal = test system: UO-31 renal
# HOP-92 NSCLC = test system: HOP-92 NSCLC
# HCT-15 colon = test system: HCT-15 colon
# HS 578T breast = test system: HS 578T breast
# HT29 colon = test system: HT29 colon
# SN12C renal = test system: SN12C renal
# HCT-116 colon = test system: HCT-116 colon
compound,measurement,setting,value
COC(=O)[C@@H]1c2cc3c(c(O)c2[C@@H](OC2OC(C)C(OC)C(C)(OC)C2OC)C[C@]1(C)O)C(=O)c1c(O)cc2c(c1C3=O)O[C@H]1O[C@]2(C)[C@H](O)[C@@H](N(C)C)[C@@H]1O (stereo not given in full),TGI,OVCAR-5 ovarian,466 nM and 6.03 µM
same,TGI,OVCAR-3 ovarian,373 nM and 20.3 µM
same,TGI,HOP-18 NSCLC,220 nM and 4.7 µM
same,TGI,KM20L2 colon,165 nM and 11.9 µM
same,TGI,TK-10 renal,821 nM and 12.1 µM
same,TGI,EKVX NSCLC,126 nM and 1.95 µM
CN1C=c2c3c(ccc2=C2C=CC4C=C5OCOC5=CC4=C21)OCO3 (stereo not given),TGI,K-562 leukemia,"2.32 µM [sample A, mean of 2 tests] and > 100 µM [sample B, mean of 2 tests]"
same,TGI,UACC-62 melanoma,"387 nM [sample A, mean of 2 tests] and 4.96 µM [sample B, 1 test]"
same,TGI,CCRF-CEM leukemia,"664 nM [sample A, mean of 2 tests] and > 39.4 µM [sample B, mean of 2 tests]"
same,TGI,MOLT-4 leukemia,"729 nM [sample A, mean of 2 tests] and 13.6 µM [sample B, mean of 2 tests]"
same,TGI,SR leukemia,"477 nM [sample A, 1 test] and 26.2 µM [sample B, 1 test]"
CC[C@H](C)[C@H](NC(=O)[C@H]1CCCCN1C)C(=O)N(C)[C@H](C[C@@H](OC(C)=O)c1cccc(C(=O)N[C@@H](Cc2ccccc2)C[C@H](C)C(=O)OC)n1)C(C)C,GI50,UO-31 renal,50.4 nM and 561 nM
same,TGI,HOP-92 NSCLC,85.2 nM and > 25 µM
same,GI50,TK-10 renal,48.1 nM and 9.38 µM
CC(C)C(NC(=O)C(C(C)C)N(C)C)C(=O)N(C)C(C(=O)N1CCCC1C(=O)N1CCCC1C(=O)NCc1ccccc1)C(C)C (stereo not given) (ξNMe2Val-V[NMeV]PP-NHBn; configuration not given here),TGI,HOP-92 NSCLC,555 nM and > 100 µM
same,TGI,HCT-15 colon,0.402 nM and > 100 µM
same,TGI,HS 578T breast,142 nM and 50.2 µM
same,TGI,HT29 colon,< 0.1 nM and > 100 µM
same,TGI,SN12C renal,0.69 nM and > 100 µM
same,TGI,HCT-116 colon,411 nM and 13.4 nM

# — PubChem BioAssay (NCI)
